Experimental data published in PubChem BioAssay AID1030 (National Center for Advancing Translational Sciences (NCATS), 2008).
The campaign covered roughly 220,000 compounds. About 16,000 (7.3%) were called active. Inconclusive means that the source gave no clear call. Such entries were picked first, then a sample of the others. Calls follow the shape of the dose curve; as a rule, active = well fitted inhibition curve with a large enough effect (not every such curve was filed as active); inconclusive = small, poorly fitted or top-dose-only effect, or another doubt; inactive = no such curve, though single readings can be large or run the other way. A potency beside an inconclusive call is a rough fit, not a confirmed value.

target: Aldehyde dehydrogenase 1A1 (Homo sapiens) (UniProt P00352); assay: qHTS Assay for Inhibitors of Aldehyde Dehydrogenase 1 (ALDH1A1); conditions: Purified ALDH1A1, NADH fluorescence, propionaldehyde substrate; series mostly up to 75.3 µM; activity, negative = inhibition: at the top concentration;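 as to activity, negative = inhibition: plate controls were no enzyme wells and a reference inhibitor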
Chain of UniProt P00352 (P00352 whole entry, looked up): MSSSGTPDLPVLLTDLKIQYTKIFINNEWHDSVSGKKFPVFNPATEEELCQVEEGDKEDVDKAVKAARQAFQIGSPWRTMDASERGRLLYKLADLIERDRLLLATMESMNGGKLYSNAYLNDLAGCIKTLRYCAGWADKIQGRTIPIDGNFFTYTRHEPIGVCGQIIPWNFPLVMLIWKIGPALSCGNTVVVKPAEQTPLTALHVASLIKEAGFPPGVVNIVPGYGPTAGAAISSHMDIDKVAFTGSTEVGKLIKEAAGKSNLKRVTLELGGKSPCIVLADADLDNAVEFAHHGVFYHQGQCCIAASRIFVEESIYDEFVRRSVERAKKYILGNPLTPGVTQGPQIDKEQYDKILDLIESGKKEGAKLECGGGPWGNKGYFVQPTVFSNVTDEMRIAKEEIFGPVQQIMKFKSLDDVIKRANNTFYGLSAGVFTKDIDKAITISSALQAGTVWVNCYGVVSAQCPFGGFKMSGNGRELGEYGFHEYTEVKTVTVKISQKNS
Potency is read from the fitted curve at half-maximal effect; tags tell the direction and shape of the fitted curve.

Potency, inconclusive:
CCOC(=O)c1sc(NC(=O)c2cccs2)cc1C 39.8 µM [inhibitor, single point]
CC(=O)c1ccc2noc(-c3ccccc3)c2c1 31.6 µM [inhibitor, partial curve]
Cc1cc(C(F)(F)F)n(-c2nc(C(=O)NNS(=O)(=O)c3ccccc3[N+](=O)[O-])cs2)n1 20 µM [inhibitor, single point]
CC(=O)Nc1cc(C(=O)c2ccccc2)ccc1N1CCOCC1 28.2 µM [inhibitor, single point]
CCOc1ccc(-n2c(O)c(/C=N/Nc3nnc(C)c(=O)[nH]3)c3ccccc3c2=O)cc1 39.8 µM [inhibitor, single point]
CCCN(CCC)CCCNC(=O)c1cc2c(=O)n(C)c3ccccc3c2n1C 28.2 µM [inhibitor, partial curve]
CCOc1ccc(-c2c(C(=O)N/N=C/c3ccc(OC(C)C)cc3)nnn2-c2nonc2N)cc1 35.5 µM [inhibitor, single point]
COC(=O)CCc1sc(Nc2ccccc2)nc1-c1ccc(OC)cc1 35.5 µM [inhibitor, single point]
O=C(CNC(=O)c1ccco1)Nc1cc(Cl)ccc1N1CCOCC1 11.2 µM [inhibitor, partial curve]
CC(C)CC(=O)c1c[nH]c(C(=O)N2CCN(Cc3ccccc3)CC2)c1 22.4 µM [inhibitor, single point]
Cc1[nH][nH]c(=O)c1C(c1ccc(-c2cccc(C(=O)O)c2)o1)c1c(C)[nH][nH]c1=O 25.1 µM [inhibitor, single point]
CCOC(=O)CCSc1nc(C)c2cc(OC)ccc2n1 35.5 µM [inhibitor, partial curve]
COc1cc(NC(=O)c2ccc(Br)o2)c(C(=O)O)cc1OC 39.8 µM [inhibitor, single point]
CCCCOc1ccccc1C1NC(=O)NC(C)=C1C(=O)OCCOC (configuration not stated) 2.51 µM [inhibitor, full curve, poor fit]
CCCc1nn2c(=O)c(C(c3ccc(C)cc3)c3c(O)nc4sc(CCC)nn4c3=O)c(O)nc2s1 22.4 µM [inhibitor, partial curve]
Cc1nc(-c2ccccc2)sc1-c1nc(-c2ccccc2)ncc1S(=O)(=O)c1ccccc1 35.5 µM [inhibitor, single point]
CCOC(=O)Cc1csc(NC(=O)CSc2nc(-c3ccccc3)c(C#N)c(=O)[nH]2)n1 25.1 µM [inhibitor, partial curve]
CCOC(=O)N1CCN(C(=O)Nc2ccc3nccnc3c2)CC1 35.5 µM [inhibitor, single point]
Cc1ccccc1OCc1nnc(SCCN2CCCC2)n1-c1ccccc1 44.7 µM [inhibitor, single point]
O=C(c1cccc(F)c1)N1CCC2(CC1)CCN(c1cccc(-c3ccccc3)c1)CC2 20 µM [inhibitor, partial curve]
O=C(Nc1ccccc1)N(Cc1cccs1)C1CCCC1 37.7 µM [inhibitor, single point]
Cc1nn2c(c1-c1ccc(Cl)cc1)N=C(c1ccco1)CC2c1ccccc1 (configuration not stated) 39.8 µM [inhibitor, single point]
CNc1c([N+](=O)[O-])cnn1-c1ccc(F)cc1 25.1 µM [inhibitor, single point]
CCN(CC)S(=O)(=O)c1ccc(OC)c(NC(=O)c2ccc3c(c2)OCO3)c1 17.8 µM [inhibitor, partial curve]
CCOC(=O)c1cc2c(=O)n3ccccc3nc2n(CC(C)C)c1=NC(=O)c1c(-c2c(F)cccc2Cl)noc1C 35.5 µM [inhibitor, single point]
Nn1c(SCC(=O)NCCCc2ccccc2)nnc1-c1cccnc1 39.8 µM [inhibitor, single point]
COc1cccc2sc(NC(=O)c3ccc(Br)s3)nc12 35.5 µM [inhibitor, partial curve]
Cc1cc(NC(=O)c2coc(=O)c(Br)c2)ccc1C(C)C 3.16 µM [inhibitor, partial curve]
Nc1nc(NCCOCCO)nc(NCC2CCCO2)c1[N+](=O)[O-] (configuration not stated) 39.8 µM [inhibitor, single point]
Cc1ccc(C)c(CN2C(=O)C3CCCN3c3ccc(S(=O)(=O)N4CCOCC4)cc32)c1 (configuration not stated) 17.8 µM [inhibitor, partial curve]
O=c1[nH]c2cc3c(cc2cc1CN(Cc1cccs1)Cc1nnnn1Cc1ccco1)OCCO3 25.1 µM [inhibitor, partial curve]
O=C(NCCCN1CCOCC1)c1cc2c(=O)[nH]c3ccccc3c2s1 23.8 µM [inhibitor, partial curve]
O=C(NN1C(=O)c2ccccc2NC1c1ccccn1)c1ccccc1 (configuration not stated) 35.5 µM [inhibitor, partial curve]
OCC1(CCOc2ccccc2)CCN(C2Cc3ccccc3C2)CC1 8.91 µM [inhibitor, partial curve]
CCOc1ccccc1CN1CCN(Cc2ccc(C)o2)CC1CCO (configuration not stated) 39.8 µM [inhibitor, single point]
Cc1cc(Br)ccc1NC(=S)Nc1cccc([N+](=O)[O-])c1 39.8 µM [inhibitor, single point]

Potency, active:
O=C(Nc1ncc2c(n1)CC(c1ccco1)CC2=O)c1ccc(Cl)cc1 (configuration not stated) 10 µM
Cc1cccc(C(=O)NC(=S)Nc2ccccc2C(F)(F)F)c1 17.8 µM
COC(=O)c1ccc2c(=O)n(-c3ccccc3F)c(=S)[nH]c2c1 15.8 µM
CCN1CCCC1CN(Cc1cc2ccc(C)c(C)c2[nH]c1=O)C(=O)Nc1ccccc1OC (configuration not stated) 12.6 µM
O=C(Nc1cccc(F)c1)C1CCN(c2nnnn2-c2ccccc2)CC1 22.4 µM
CN=C1S/C(=C\c2cc(C)n(-c3ccccc3F)c2C)C(=O)N1C 17.8 µM
CC1CCCCN1S(=O)(=O)c1ccc(NC(=O)CSc2nnnn2C)cc1 (configuration not stated) 22.4 µM
O=S(=O)(c1ccc2c(c1)OCCO2)N(Cc1ccc(F)cc1)Cc1nnc(-c2cccs2)o1 3.98 µM
O=c1oc2ccccc2c(O)c1CN1CCCCC1 14.1 µM
O=C1NC(c2cccc(Br)c2)=N/C1=C\c1ccco1 11.2 µM
O=c1[nH]c(-c2ccncc2)nc2ccccc12 7.94 µM
COc1ccc(/C=N/NC(=O)C(Cc2c[nH]c3ccccc23)NC(=O)OCC(C)C)cc1[N+](=O)[O-] (configuration not stated) 12.6 µM
O=C(N/N=C/c1ccc([N+](=O)[O-])cc1)c1ccc2nc[nH]c2c1 6.31 µM
CCCCn1c2ccc(F)cc2c2nnc(NN)nc21 2.24 µM
COc1c(Cl)ccc(Cl)c1C(=O)OCC(=O)O 22.4 µM

Potency, inactive:
Cn1cnc([N+](=O)[O-])c1Sc1nnc(-c2cccnc2)n1C

activity, negative = inhibition, inactive:
O=C1CCCC=C1[C@H](O)c1ccc([N+](=O)[O-])cc1 -4.41% [at 13.5 µM]
O=C(Oc1cc(=O)n2ccccc2n1)c1ccccc1 -11.8%
COc1ccc2c(c1)N(C[C@@H](C)CN(C)C)c1ccccc1S2 13.2% [at 20.9 µM]
O=c1cc(-c2cccc(F)c2)[nH]c2cc(F)ccc12 17.8% [at 120 µM]
CCCCCCCCCCCCCCCCCCOCC(O)CO (configuration not stated) -0.42%
Cc1ccc(-c2noc(CSc3nnc(Cc4ccccc4)n3-c3cccc(C)c3)n2)cc1 -10.8%
Cc1nc(CSc2n[nH]c(=O)n2-c2ccccc2)cs1 -3.92%
CC(CCc1ccccc1)NC(=O)c1ccc(NC(=O)c2cccc(Br)c2)cc1 (configuration not stated) -5.33%
COC(=O)C(C)N=Cc1ccccc1 (configuration not stated) 6.45%
CN(C)Cc1ccc(C(C)(C)C)cc1-c1cc(C(C)(C)C)ccc1CN(C)C -2.02% [at 13.5 µM]
Cc1cccc(C)c1NC(=O)CNC(=O)CCC(=O)c1cccs1 -0.534%
CC12CS(=O)(=O)CC1SC(=S)N2Cc1ccccc1 (configuration not stated) -0.593%
CN(CC(=O)NC1CCCCC1)S(=O)(=O)c1cccc2nsnc12 1.34%
CCOC(=O)C1CCCN(c2c(Nc3ccc(C)c(C)c3)c(=O)c2=O)C1 (configuration not stated) -11.7%
C#CCOCCCC(=O)O -4.46% [at 13.5 µM]
COCCNC(=O)c1cc2nc3c(c(C(F)(F)F)n2n1)CCc1ccccc1-3 -4.01%
COCC(=O)Nc1ccc(S(=O)(=O)Nc2ccccn2)cc1 -5.82%
CCOC(=O)c1ccccc1OCc1cc(/C=N/n2cnnc2)ccc1OC -6.47%
CCOC(=O)C1=C(C)NC(=NC)SC1c1ccccc1 (configuration not stated) 1.17%
Cc1cccc(Nc2nc(N)nc(CC(=O)CSc3ccc(Cl)cc3)n2)c1 -15.2%
O=C(O)C1CCCN1S(=O)(=O)c1ccccc1 (configuration not stated) 0.742%
CS(=O)(=O)N1CCC2(CCCN(Cc3ccc(C#N)cc3)C2)CC1 3.03%
COc1ccc(C(=O)OCC2CC(c3ccccc3)N(C)O2)cc1 (configuration not stated) -1.11%
Cn1c(C(=O)N2CCCC2)cc2c(=O)n(C)c3ccccc3c21 -1.64%
Cc1ccc(OCC(=O)NC2CC(C)(C)NC(C)(C)C2)cc1C 0.468%
